For the assay, the target named is T1, biotinylated truncated STAT6 (123-632)-avi (Homo sapiens, UniProt P42226).
T1 sequence (P42226 123-632 limits assumed): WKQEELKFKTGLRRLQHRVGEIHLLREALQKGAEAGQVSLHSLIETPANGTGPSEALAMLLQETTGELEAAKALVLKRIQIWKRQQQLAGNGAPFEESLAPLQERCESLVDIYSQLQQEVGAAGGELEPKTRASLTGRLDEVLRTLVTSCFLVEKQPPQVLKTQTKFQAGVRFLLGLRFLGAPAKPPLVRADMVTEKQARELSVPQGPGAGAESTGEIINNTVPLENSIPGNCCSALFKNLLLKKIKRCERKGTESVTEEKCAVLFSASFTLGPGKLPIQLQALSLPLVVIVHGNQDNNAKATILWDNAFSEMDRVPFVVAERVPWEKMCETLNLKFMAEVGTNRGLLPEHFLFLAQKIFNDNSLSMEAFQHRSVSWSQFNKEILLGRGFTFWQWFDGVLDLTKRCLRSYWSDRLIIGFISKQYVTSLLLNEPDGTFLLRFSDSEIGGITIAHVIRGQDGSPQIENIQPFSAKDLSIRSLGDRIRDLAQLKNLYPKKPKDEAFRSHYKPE
As to the kind of experiment: Homogenous Time-Resolved Fluorescence (HTRF) binding assay. The following applies: 0.15 nM biotinylated truncated STAT6 (123-632)-avi, 20 nM fluorescein-labeled probe, 30 minutes at room temperature. In general terms: In TR-FRET formats the signal depends on donor and acceptor labels being close together.

Several values for one entry are separate records, joined by “and”; a condition that tells them apart may be missing. Identical values can stand only once.

A word on the IC50: it is the concentration at which inhibition is half-maximal.

As to `COC(=O)CCC#Cc1cccc2c1CC(C(=O)N1CCC=C(c3ccc4oc(C(=O)N(C)C)cc4c3)C1)N(C=O)C2` (stereo not shown) [Example I-802, Methyl 5-(3-(5-(2-(dimethylcarbamoyl)benzofuran-5-yl)-1,2,3,6-tetrahydropyridine-1-carbonyl)-2-formyl-1,2,3,4-tetrahydroisoquinolin-5-yl)pent-4-ynoate], the half-maximal inhibitory concentration (IC50) lay within 100 to 1000 nM.
Molecule `COc1ccccc1-c1cc(C2=CCCN(C(=O)C3Cc4ccccc4CN3C=O)C2)cc2cc(C(=O)N(C)C)oc12` (stereo not shown) [Example I-803, 5-(1-(2-formyl-1,2,3,4-tetrahydroisoquinoline-3-carbonyl)-1,2,5,6-tetrahydropyridin-3-yl)-7-(2-methoxyphenyl)-N,N-dimethylbenzofuran-2-carboxamide] showed an IC50 of 10000 to 100000 nM.
The molecule `COc1cccnc1N1CCN(C(=O)c2cc3c(-n4ccccc4=O)cc(C4=CCCN(C(=O)CCn5ccnn5)C4)c(F)c3[nH]2)CC1` [Example I-807, 1-(6-(1-(3-(1H-1,2,3-triazol-1-yl)propanoyl)-1,2,5,6-tetrahydropyridin-3-yl)-7-fluoro-2-(4-(3-methoxypyridin-2-yl)piperazine-1-carbonyl)-1H-indol-4-yl)pyridin-2(1H)-one] came in with a half-inhibitory concentration (IC50) of under 100 nM.
Next, `CCc1cc(C)ncc1-c1cc(C2=CCCN(C(=O)C(C)C(=O)O)C2)c(F)c2[nH]c(C(=O)N3CCN(c4ncc(F)cc4OC)CC3)cc12` (stereo not shown) [Example I-808, 3-(3-(4-(4-ethyl-6-methylpyridin-3-yl)-7-fluoro-2-(4-(5-fluoro-3-methoxypyridin-2-yl)piperazine-1-carbonyl)-1H-indol-6-yl)-5,6-dihydropyridin-1(2H)-yl)-2-methyl-3-oxopropanoic acid]: < 100 nM and 100 to 1000 nM.
On to `CN(C)C(=O)c1cc2cc(C3=CCCN(C(=O)CCc4nccs4)C3)ccc2o1` [Example I-815], for which the IC50 lay within 100 to 1000 nM.
Next, `CN(C)C(=O)c1cc2ccc(C3=CCCN(C(=O)CCc4nccs4)C3)cc2[nH]1` [Example I-821]: 100 to 1000 nM; `CN(C)C(=O)c1cc2ccc(C3=CCCN(C(=O)CCn4cccn4)C3)cc2[nH]1` [Example I-826]: 100 to 1000 nM.
As to `CN(C)C(=O)c1cc2ccc(C3=CCCN(C(=O)CCc4nncs4)C3)cc2[nH]1` [Example I-828], the IC50 was 100 to 1000 nM.
In the case of `CN(C)C(=O)c1cc2ccc(C3=CCCN(C(=O)CCc4ccno4)C3)cc2[nH]1` [Example I-829], the IC50 lay in the range of 100 to 1000 nM.
Next, `CN(C)C(=O)c1cc2cc([C@H]3CCCN(C(=O)CCn4ccnn4)C3)ccc2o1` [Example I-830]: 100 to 1000 nM; `CN(C)C(=O)c1cc2cc(C3=CCCN(C(=O)C(Cn4ccnn4)c4cccc(CO)c4)C3)ccc2o1` (stereo not shown) [Example I-832]: 1000 to 10000 nM; `CN(C)C(=O)c1cc2cc(C3=CCCN(C(=O)C(Cn4ccnn4)c4cccc(CO)c4)C3)ccc2o1` (stereo not shown) [Example I-833]: 100 to 1000 nM.
In turn, `C[C@@H](C(=O)N1CCC=C(c2ccc3cc(C(=O)N(C)C)[nH]c3c2)C1)n1ccccc1=O` [Example I-834] displayed an IC50 of 100 to 1000 nM.
Next, `CN(C)C(=O)c1cc2cc(C3=CCCN(C(=O)C(Cn4ccnn4)c4cccc(C#N)c4)C3)ccc2o1` (stereo not shown) [Example I-835]: 100 to 1000 nM.
With `COc1ccccc1-c1cc(C2=CCCN(C(=O)C(C)C)C2)c(F)c2[nH]c(C(=O)N(C)C)cc12` [Example I-837] the figure was 100 to 1000 nM.
`COc1ccccc1-c1cc(C2=CCCN(C(=O)C3Cc4ccccc4CN3C=O)C2)cc2cc(C(=O)N(C)C)oc12` (stereo not shown) [Example I-838] showed a half-maximal inhibitory concentration (IC50) of under 100 nM.
`COc1ccccc1-c1cc(C2=CCCN(C(=O)[C@H]3Cc4ccccc4CN3C=O)C2)cc2cc(C(=O)N(C)C)oc12` [Example I-839]: the half-inhibitory concentration (IC50) is under 100 nM.
`CN(C)C(=O)c1cc2c(C3CCCCC3)cc([C@H]3CCCN(C(=O)CCn4cccn4)C3)c(F)c2[nH]1` [Example I-840] displayed a half-inhibitory concentration (IC50) of under 100 nM.
As for `COc1ccccc1-c1cc(C2=CCCN(C(=O)CCn3ccnn3)C2)c(F)c2[nH]c(C(=O)N3CCN(C)CC3)cc12` [Example I-841], the IC50 is under 100 nM.
The molecule `COc1ccccc1-c1cc(C2=CCCN(C(=O)CCn3ccnn3)C2)c(F)c2[nH]c(C(=O)N3CCCC3)cc12` [Example I-842] displayed an IC50 of under 100 nM.
`COc1ccccc1-c1cc(C2=CCCN(C(=O)CCn3ccnn3)C2)c(F)c2[nH]c(C(=O)N3CCN(CCCF)CC3)cc12` [Example I-843] had an IC50 of under 100 nM.
Turning to `CN(C)CCN(C)C(=O)c1cc2cc(C3=CCCN(C(=O)CCn4ccnn4)C3)ccc2o1` [Example I-844], the concentration for half-maximal inhibition (IC50) is 100 to 1000 nM.
As for `CN(C)C(=O)c1cc2cc(C3=CCCN(C(=O)CCn4ccnn4)C3)cc(-c3cccc4c3CN(C)C4=O)c2o1` [Example I-845], the IC50 was under 100 nM.
`COc1ccccc1-c1cc(C2=CCCN(C(=O)CCn3ccnn3)C2)c(F)c2[nH]c(C(=O)N3CCc4cccnc43)cc12` [Example I-848] gave an IC50 of under 100 nM.
For the molecule `COc1ccccc1-c1cc(C2=CCCN(C(=O)CCn3ccnn3)C2)c(F)c2[nH]c(C(=O)N3CCC(Nc4ncccn4)CC3)cc12` [Example I-849], the IC50 was under 100 nM.
Molecule `COc1ccccc1-c1cc(C2=CCCN(C(=O)CCn3ccnn3)C2)c(F)c2[nH]c(C(=O)N3CCCN(c4ccc(F)cn4)CC3)cc12` [Example I-850] had a 50% inhibitory concentration (IC50) of under 100 nM.
Molecule `COc1ccccc1-c1cc(C2=CCCN(C(=O)CCn3ccnn3)C2)c(F)c2[nH]c(C(=O)N3CCc4n[nH]cc4C3)cc12` [Example I-851] registered an IC50 of under 100 nM.
Next, `COc1ccccc1-c1cc(C2=CCCN(C(=O)CCn3ccnn3)C2)c(F)c2[nH]c(C(=O)N3CCN(Cc4ccc(Br)cc4)CC3)cc12` [Example I-852]: 100 to 1000 nM; `Cc1ccc(-c2cc(C3=CCCN(C(=O)CCn4ccnn4)C3)cc3cc(C(=O)N(C)C)oc23)c(O)c1` [Example I-853]: under 100 nM.
The molecule `COc1ccc(-c2cc(C3=CCCN(C(=O)CCn4ccnn4)C3)cc3cc(C(=O)N(C)C)oc23)c(C#N)c1` [Example I-854] came in with a concentration for half-maximal inhibition (IC50) of under 100 nM.
`CN(C)C(=O)c1cc2cc(C3=CCCN(C(=O)CCn4ccnn4)C3)cc(-c3cc(C(F)(F)F)nn3C)c2o1` [Example I-855] returned an IC50 of under 100 nM.
The molecule `Cc1cc(C)c(-c2cc(C3=CCCN(C(=O)CCn4ccnn4)C3)cc3cc(C(=O)N(C)C)oc23)cc1C` [Example I-856] yielded a concentration for half-maximal inhibition (IC50) of under 100 nM.
Molecule `COc1ccccc1-c1cc(C2=CCCN(C(=O)CCn3ccnn3)C2)c(F)c2[nH]c(C(=O)N3CCN(Cc4ccncc4)CC3)cc12` [Example I-858] displayed an IC50 of under 100 nM.
Next, `COc1ccccc1-c1cc(C2=CCCN(C(=O)CCn3ccnn3)C2)c(F)c2[nH]c(C(=O)N3CCN(c4ccc5n[nH]cc5c4)CC3)cc12` [Example I-859]: under 100 nM.
Turning to `COc1ccccc1-c1cc(C2=CCCN(C(=O)CCn3ccnn3)C2)c(F)c2[nH]c(C(=O)N3CCN(c4ccc(C)cc4)CC3)cc12` [Example I-860], the IC50 lay within 100 to 1000 nM.
With `COc1ccccc1-c1cc(C2=CCCN(C(=O)CCn3ccnn3)C2)c(F)c2[nH]c(C(=O)N3CCN(c4ccccn4)CC3)cc12` [Example I-862] the figure was under 100 nM; with `COc1ccccc1-c1cc(C2=CCCN(C(=O)CCn3ccnn3)C2)c(F)c2[nH]c(C(=O)N3CCN(c4ncccn4)CC3)cc12` [Example I-863], under 100 nM; with `COc1ccccc1-c1cc(C2=CCCN(C(=O)CCn3ccnn3)C2)c(F)c2[nH]c(C(=O)N3CCN(C(=O)N(C)C)CC3)cc12` [Example I-866], under 100 nM.
With `COc1ccccc1-c1cc(C2=CCCN(C(=O)CCn3ccnn3)C2)c(F)c2[nH]c(C(=O)N3CCN(c4ccc(O)cc4)CC3)cc12` [Example I-867] the figure was under 100 nM.
For the molecule `COc1ccccc1-c1cc(C2=CCCN(C(=O)CCn3ccnn3)C2)c(F)c2[nH]c(C(=O)N3CCN(Cc4ccc(Cl)cc4)CC3)cc12` [Example I-868], the half-inhibitory concentration (IC50) fell in the range of 100 to 1000 nM.
For `CN(C)C(=O)c1cc2cc(C3=CCCN(C(=O)CCn4ccnn4)C3)cc(-c3ccc4c(c3)NC(=O)C4)c2o1` [Example I-869], the half-maximal inhibitory concentration (IC50) is under 100 nM.
In the case of `CN(C)C(=O)c1cc2cc(C3=CCCN(C(=O)CCn4ccnn4)C3)cc(NCc3cccc4ncccc34)c2o1` [Example I-871], the 50% inhibitory concentration (IC50) is under 100 nM.
For `CN(C)C(=O)c1cc2cc(C3=CCCN(C(=O)CCn4ccnn4)C3)cc(NCc3ccc(F)cc3)c2o1` [Example I-872], the IC50 is 100 to 1000 nM.
With `CN(C)C(=O)c1cc2cc(C3=CCCN(C(=O)CCn4ccnn4)C3)cc(NC3CCCC3)c2o1` [Example I-874] the figure was 100 to 1000 nM.
`COc1ccccc1-c1cc(C2=CCCN(C(=O)CCn3ccnn3)C2)c(F)c2[nH]c(C(=O)N3CCN(c4cc(C#N)ccn4)CC3)cc12` [Example I-875] registered an IC50 of under 100 nM.
As for `CN(C)C(=O)c1cc2cc(C3=CCCN(C(=O)CCn4ccnn4)C3)cc(NCc3ccc(C(F)(F)F)cc3)c2o1` [Example I-877], the IC50 was in the range of 100 to 1000 nM.
The molecule `CN(C)C(=O)c1cc2cc(C3=CCCN(C(=O)CCn4ccnn4)C3)cc(NCc3ccccc3C3CC3)c2o1` [Example I-878] yielded an IC50 of under 100 nM.
With `COc1ncccc1-c1cc(C2=CCCN(C(C)=O)C2)c(F)c2[nH]c(C(=O)N(C)C)cc12` [Example I-879] the figure was under 100 nM; with `COc1c(F)cccc1-c1cc(C2=CCCN(C(C)=O)C2)c(F)c2[nH]c(C(=O)N(C)C)cc12` [Example I-881], 100 to 1000 nM.

Values taken from patent US20250214977A1, “STAT6 INHIBITORS AND USES THEREOF” (Kymera Therapeutics, Inc., priority 2024, published 2025).
